Laboratory results published in a collection of fitness landscapes (doi:10.1126/science.1257360).
This is one part of the list.

B1: PhoQ; a variant is named by its letters at X, in order, P23837 (parent)
chain: MKKLLRLFFPLSLRVRFLLATAAVVLVLSLAYGMVALIGYSVSFDKTTFRLLRGESNLFYTLAKWENNKLHVELPENIDKQSPTMTLIYDENGQLLWAQRDVPWLMKMIQPDWLKSNGFHEIEADVNDTSLLLSGDHSIQQQLQEVREDDDDAEMTHSVAVNVYPATSRMPKLTIVVVDTIPVELKSSYMVWSWFIYVLSANLLLVIPLLWVAAWWSLRPIEALAKEVRELEEHNRELLNPATTRELTSLVRNLNRLLKSERERYDKYRTTLTDLTHSLKTPLXXLQXXLRSLRSEKMSVSDAEPVMLEQISRISQQIGYYLHRASMRGGTLLSRELHPVAPLLDNLTSALNKVYQRKGVNISLDISPEISFVGEQNDFVEVMGNVLDNACKYCLEFVEISARQTDEHLYIVVEDDGPGIPLSKREVIFDRGQRVDTLRPGQGVGLAVAREITEQYEGKIVAGESMLGGARMEVIFGRQHSAPKDE

Variants of: B1
Test: enrichment ratio after two sorts for PhoP signalling (ratio (wild type AVST 3.29)); higher = more functional
Settings: with PhoP (E. coli)

| Variant | enrichment ratio |
| --- | --- |
| TYRI | ≤ 0.25 |
| GLDV | ≤ 0.25 |
| YKEF | ≤ 0.25 |
| VDAI | ≤ 0.25 |
| ERWM | ≤ 0.25 |
| NAWN | ≤ 0.25 |
| MCVL | ≤ 0.25 |
| HKVK | ≤ 0.25 |
| GSNE | ≤ 0.25 |
| KNDH | ≤ 0.25 |
| EAWL | ≤ 0.25 |
| MMNM | ≤ 0.25 |
| SPKE | ≤ 0.25 |
| WKLS | ≤ 0.25 |
| QHND | ≤ 0.25 |
| QTLW | ≤ 0.25 |
| DWNC | ≤ 0.25 |
| ATTS | 9.63 |
| LHMA | ≤ 0.25 |
| GNHR | ≤ 0.25 |
| QFHI | ≤ 0.25 |
| RLDQ | ≤ 0.25 |
| FIQR | ≤ 0.25 |
| NRQI | ≤ 0.25 |
| RFFS | ≤ 0.25 |

| Variant | enrichment ratio |
| --- | --- |
| SSMY | 10.5 |
| SRAG | ≤ 0.25 |
| LYEC | ≤ 0.25 |
| YHTC | ≤ 0.25 |
| QIMR | ≤ 0.25 |
| QLLM | ≤ 0.25 |
| NESN | ≤ 0.25 |
| RGAV | ≤ 0.25 |
| LWLQ | ≤ 0.25 |
| YTMR | ≤ 0.25 |
| KNTT | ≤ 0.25 |
| IYKT | ≤ 0.25 |
| HECG | ≤ 0.25 |
| KPRL | ≤ 0.25 |
| HLII | ≤ 0.25 |
| WFGH | ≤ 0.25 |
| HTIM | ≤ 0.25 |
| TQQE | 44.9 |
| RHHV | ≤ 0.25 |
| EIGA | ≤ 0.25 |
| FDKP | ≤ 0.25 |
| TWWK | ≤ 0.25 |
| FTFN | ≤ 0.25 |
| HDMS | ≤ 0.25 |
| FFEG | ≤ 0.25 |

| Variant | enrichment ratio |
| --- | --- |
| FWSA | ≤ 0.25 |
| HWLN | ≤ 0.25 |
| TQHA | ≤ 0.25 |
| AQDY | ≤ 0.25 |
| LPKQ | ≤ 0.25 |
| PQEA | ≤ 0.25 |
| GGWI | ≤ 0.25 |
| VQTN | ≤ 0.25 |
| MILG | 5.28 |
| QQCS | ≤ 0.25 |
| STFW | ≤ 0.25 |
| QVML | ≤ 0.25 |
| MGLW | ≤ 0.25 |
| LEPP | ≤ 0.25 |
| KTVY | ≤ 0.25 |
| NDWQ | ≤ 0.25 |
| TMRE | ≤ 0.25 |
| MPDY | ≤ 0.25 |
| SVTR | 8.52 |
| KDEY | ≤ 0.25 |
| TGAK | ≤ 0.25 |
| DEMV | ≤ 0.25 |
| FLIP | ≤ 0.25 |
| RGVM | ≤ 0.25 |
| KLQP | ≤ 0.25 |

| Variant | enrichment ratio |
| --- | --- |
| WNGG | 0.557 |
| TFVT | ≤ 0.25 |
| DMYF | ≤ 0.25 |
| SEKT | ≤ 0.25 |
| QIHH | ≤ 0.25 |
| SQWS | 0.878 |
| PGYV | ≤ 0.25 |
| IQCK | ≤ 0.25 |
| LFND | ≤ 0.25 |
| EFHE | ≤ 0.25 |
| DTMM | ≤ 0.25 |
| MDRV | ≤ 0.25 |
| YATL | 2.48 |
| SCSI | 8.62 |
| WKVS | ≤ 0.25 |
| TRGT | ≤ 0.25 |
| DEIG | ≤ 0.25 |
| WPFD | ≤ 0.25 |
| LNSR | ≤ 0.25 |
| NQLP | ≤ 0.25 |
| PPLL | ≤ 0.25 |
| DHHP | ≤ 0.25 |
| TILN | 0.661 |
| QVYA | ≤ 0.25 |
| DTAP | ≤ 0.25 |

| Variant | enrichment ratio |
| --- | --- |
| FVAH | ≤ 0.25 |
| CHPF | ≤ 0.25 |
| QGNC | ≤ 0.25 |
| DYHE | ≤ 0.25 |
| AQYK | ≤ 0.25 |
| TAWW | ≤ 0.25 |
| GRCT | ≤ 0.25 |
| GCIT | ≤ 0.25 |
| DTYK | ≤ 0.25 |
| VPNI | ≤ 0.25 |
| PIPK | ≤ 0.25 |
| TMRI | ≤ 0.25 |
| KNAA | ≤ 0.25 |
| YQNQ | 0.253 |
| FIQH | ≤ 0.25 |
| NWYN | ≤ 0.25 |
| MVTP | ≤ 0.25 |
| APEA | ≤ 0.25 |
| TAHL | 17.4 |
| KSHI | ≤ 0.25 |
| ESIM | 2.63 |
| KIYL | ≤ 0.25 |
| EYHL | ≤ 0.25 |
| SVWH | ≤ 0.25 |
| QWAR | ≤ 0.25 |

| Variant | enrichment ratio |
| --- | --- |
| QHFD | ≤ 0.25 |
| GQQV | ≤ 0.25 |
| HTRR | ≤ 0.25 |
| NTDD | ≤ 0.25 |
| ILHF | ≤ 0.25 |
| PHGV | ≤ 0.25 |
| PQKL | ≤ 0.25 |
| MFCK | ≤ 0.25 |
| WFAM | 5.18 |
| WTAW | ≤ 0.25 |
| VFIR | 0.702 |
| YSPP | ≤ 0.25 |
| YFSP | ≤ 0.25 |
| EQTF | ≤ 0.25 |
| LHKR | ≤ 0.25 |
| KISL | ≤ 0.25 |
| WRMR | ≤ 0.25 |
| YPLA | ≤ 0.25 |
| AQWV | ≤ 0.25 |
| GDSW | ≤ 0.25 |
| WLRQ | ≤ 0.25 |
| GWCD | ≤ 0.25 |
| NNLR | ≤ 0.25 |
| APTT | ≤ 0.25 |
| NDPQ | ≤ 0.25 |

| Variant | enrichment ratio |
| --- | --- |
| LDAA | ≤ 0.25 |
| DCRN | ≤ 0.25 |
| ALPV | ≤ 0.25 |
| FNQT | ≤ 0.25 |
| VDAA | ≤ 0.25 |
| YCHR | ≤ 0.25 |
| QFCH | ≤ 0.25 |
| TCKL | ≤ 0.25 |
| RQYI | ≤ 0.25 |
| HGRI | ≤ 0.25 |
| NFAD | ≤ 0.25 |
| FNMR | ≤ 0.25 |
| IRLM | ≤ 0.25 |
| RMCC | ≤ 0.25 |
| ACGT | 4.5 |
| EDPR | ≤ 0.25 |
| GQYE | ≤ 0.25 |
| TCGI | 25 |
| ADII | 1.41 |
| TKMM | 31.6 |
| NLYW | ≤ 0.25 |
| WQHF | ≤ 0.25 |
| QLTV | ≤ 0.25 |
| ICYM | ≤ 0.25 |
| FQTQ | ≤ 0.25 |

| Variant | enrichment ratio |
| --- | --- |
| ISMA | ≤ 0.25 |
| GELK | ≤ 0.25 |
| TPEF | ≤ 0.25 |
| RVEG | ≤ 0.25 |
| PTCF | ≤ 0.25 |
| YSRM | ≤ 0.25 |
| KRSG | ≤ 0.25 |
| FTME | 2.04 |
| SNTH | 7.23 |
| YMHE | ≤ 0.25 |
| THES | ≤ 0.25 |
| RFMD | ≤ 0.25 |
| HLWA | ≤ 0.25 |
| QKST | ≤ 0.25 |
| SMLM | 7.16 |
| KCRH | ≤ 0.25 |
| WSLN | ≤ 0.25 |
| KMRM | ≤ 0.25 |
| SHSL | 0.469 |
| KIPS | ≤ 0.25 |
